Test results published in PMC4336329 (PLoS ONE, 2015).
In all, about 310,000 compounds went through this assay and about 14,000 (4.5%) showed an effect of 50% or more. The effect is printed as a negative number. The list shows a part of the results.

target: human ether-à-go-go-related gene (hERG) potassium channel (human, UniProt Q12809); assay: primary screen, population patch clamp on CHO cells stably expressing hERG
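Further: peak tail current of the secondary pulse compared with the same well before compound.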

Chain of human ether-à-go-go-related gene (hERG) potassium channel (Q12809 whole entry, looked up): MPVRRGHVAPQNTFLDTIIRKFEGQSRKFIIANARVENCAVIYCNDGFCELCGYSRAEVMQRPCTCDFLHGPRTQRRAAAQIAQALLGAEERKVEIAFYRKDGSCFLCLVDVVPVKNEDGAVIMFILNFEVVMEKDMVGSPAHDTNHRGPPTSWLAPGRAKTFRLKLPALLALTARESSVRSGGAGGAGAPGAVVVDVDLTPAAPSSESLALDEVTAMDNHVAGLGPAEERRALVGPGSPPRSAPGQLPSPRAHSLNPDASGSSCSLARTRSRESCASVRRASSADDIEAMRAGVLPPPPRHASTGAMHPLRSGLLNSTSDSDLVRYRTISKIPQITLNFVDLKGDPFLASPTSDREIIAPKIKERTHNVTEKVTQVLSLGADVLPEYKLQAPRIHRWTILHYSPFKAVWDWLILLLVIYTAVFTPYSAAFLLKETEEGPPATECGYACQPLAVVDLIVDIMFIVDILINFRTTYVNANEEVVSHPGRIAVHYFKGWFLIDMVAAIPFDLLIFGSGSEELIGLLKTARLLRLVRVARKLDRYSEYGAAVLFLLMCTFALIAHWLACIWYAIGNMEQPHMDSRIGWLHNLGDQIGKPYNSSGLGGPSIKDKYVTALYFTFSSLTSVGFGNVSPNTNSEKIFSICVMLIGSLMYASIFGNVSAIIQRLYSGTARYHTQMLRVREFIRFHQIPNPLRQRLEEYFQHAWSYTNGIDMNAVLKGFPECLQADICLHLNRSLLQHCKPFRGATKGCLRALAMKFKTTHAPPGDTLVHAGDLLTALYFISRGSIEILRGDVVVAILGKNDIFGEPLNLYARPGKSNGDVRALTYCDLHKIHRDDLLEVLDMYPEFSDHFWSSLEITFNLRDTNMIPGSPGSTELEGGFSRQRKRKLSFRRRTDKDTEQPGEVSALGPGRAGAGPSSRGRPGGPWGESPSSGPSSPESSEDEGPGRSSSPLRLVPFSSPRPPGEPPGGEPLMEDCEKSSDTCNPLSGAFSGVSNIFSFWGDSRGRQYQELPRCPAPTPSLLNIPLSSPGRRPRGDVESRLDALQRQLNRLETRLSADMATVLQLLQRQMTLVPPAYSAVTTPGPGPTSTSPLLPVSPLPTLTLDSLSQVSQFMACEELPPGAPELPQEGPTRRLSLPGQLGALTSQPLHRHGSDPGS

| Compound | hERG current change (%, negative = inhibition) at 10uM [%] |
| --- | --- |
| CCOC(=O)CS(=O)(=O)c1ccc(C(F)(F)F)cn1 | -8.78 |
| CCOC(=O)C1(CCCc2ccccc2)CCN(S(=O)(=O)N(C)C)CC1 | -4.73 |
| Cc1ccccc1S(=O)(=O)Cc1ccc(C(=O)NCc2ccccc2)o1 | -33.3 |
| COc1ccc(CNC(=O)C2(C)Cc3ccccc3C(=O)O2)cc1 (stereo not drawn) | 14.2 |
| CC1Cc2ccccc2N1S(=O)(=O)c1cccc(C(=O)OCC(=O)NCc2ccco2)c1 (stereo not drawn) | -6.65 |
| Cc1ccsc1CNC(=O)c1c(-c2ccccc2)noc1C | 1.19 |
| O=C1CC(N2CCN(c3ccc(Cl)c(Cl)c3)CC2)C(=O)N1 (stereo not drawn) | -16.4 |
| Cc1cc(C)n(CC(=O)N/N=C/c2ccc3c(c2)OCO3)n1 | 3.93 |
| Cc1sc(NC(=O)c2ccco2)c(C(c2ccncc2)N2CCOCC2)c1C (stereo not drawn) | -37.1 |
| CC(C)NC(=O)CSc1nc(N)c(NC(=O)c2ccco2)c(=O)[nH]1 | 14.7 |
| Cc1cccc2cc(COC(=O)c3cccs3)c(=O)[nH]c12 | -3.88 |
| c1cc(-c2nnc3sc(C4CCCCC4)nn23)ccn1 | -42.8 |
| CCOC(=O)c1oc2ccccc2c1COC(=O)C(C)NC(=O)c1ccco1 (stereo not drawn) | -16.5 |
| CCN(C(=O)CCc1ccccc1)C1CCCCC1 | 10.2 |
| Cc1ccc(S(=O)(=O)c2ccc(NC(=O)c3c(F)cccc3F)cc2)cc1 | 16.8 |
| Cc1csc(NC(=O)CSc2nnc(NC(=O)C3CC(=O)N(c4ccccc4)C3)s2)n1 (stereo not drawn) | 7.17 |
| Cc1ccc(N2C(=O)C3NN=C(C(=O)OCc4ccccc4)C3C2=O)cc1 (stereo not drawn) | 0.882 |
| O=C(C1=C(O)C(=O)N(c2ncccn2)C1c1ccc(F)cc1)c1ccco1 (stereo not drawn) | 16.6 |
| CCCCOC(=O)Nc1nc2ccc(OC)cc2s1 | 5.33 |

| Compound | hERG current change (%, negative = inhibition) at 10uM [%] |
| --- | --- |
| COc1ccc(-c2n[nH]c(=S)n2CC(C)C)cc1 | 13 |
| Nn1c(Nc2ccccc2)nc2ccccc21 | -1.26 |
| COc1ccccc1Nc1nc(NCC(C)C)nc(N)c1[N+](=O)[O-] | 13.7 |
| CCn1c(COC(=O)CNC(=O)c2ccccc2)nc2cc(S(=O)(=O)N(C)C)ccc21 | -8 |
| COc1ccc(CCNC(=O)CCCCC(=O)NCCc2ccc(OC)cc2)cc1 | 17.4 |
| CCOc1cccc(NC(=O)c2cnccc2C(F)(F)F)c1 | -46.4 |
| O=C(c1ccccc1F)N1CCOCC1 | 32.4 |
| O=C(N/N=C/C(Cl)=C/c1ccccc1)c1ccncc1 | -6.84 |
| O=C(NNC(=S)Nc1ccccc1)C1CCCCC1 | 56.7 |
| CC(C)c1nc(SCC(=O)N2CCCc3ccccc32)c2c(=O)n(C)c(=O)n(C)c2n1 | -10.1 |
| OCc1nnn(-c2cccc(C(F)(F)F)c2)c1CO | 13.5 |
| COc1cccc2c1OCC(CN1CCN(Cc3ccccc3F)C(CCO)C1)=C2 (stereo not drawn) | -19.3 |
| COc1ccc(NC(=O)C2=C(C)NC(=O)NC2c2ccccc2[N+](=O)[O-])cc1 (stereo not drawn) | 4.47 |
| O=C(N/N=C/c1ccco1)c1ccncc1 | 17.9 |
| Cc1nc(-c2ccc(NC(=O)c3ccco3)cc2)cs1 | 4.13 |
| Cc1ccccc1NCC(=O)N/N=C/c1c[nH]c2ccccc12 | 6.77 |
| COc1cc(C)ccc1OCCOc1c(C)cccc1Cl | 2.01 |
| Cc1cc(C2C(=O)C(C(=O)c3ccc(Cl)cc3)C(=O)CC2(C)C)on1 (stereo not drawn) | 3.97 |
| O=C(CSc1nnnn1-c1cccc2c1CCCC2)N1CCOCC1 | -7.92 |

| Compound | hERG current change (%, negative = inhibition) at 10uM [%] |
| --- | --- |
| CC(C)[C@H](NC(=O)c1ccccc1)C(=O)OCC(=O)Nc1ccc(Cl)cc1C(F)(F)F | 9.75 |
| COC(=O)C(CC(C)C)N1CCC(=O)c2ccccc2S1(=O)=O (stereo not drawn) | 4.93 |
| COc1ccc(CC(=O)Nc2ccc(-c3cn4cccc(C)c4n3)cc2)cc1OC | -2.29 |
| COc1ccc(/C=C2\SC(=S)N(CCC(=O)Nc3cccc(C(=O)O)c3)C2=O)cc1OC | 15.2 |
| COC(=O)CCc1nc2ccccc2[nH]c1=O | -1.09 |
| O=C(COC(=O)CCSc1ccc(Cl)cc1)NCc1ccco1 | 54.6 |
| Nc1ccc(S(=O)(=O)N2CCCC2)cc1Cl | -6.2 |
| CC(NC(=O)c1cccc(OC2CCN(C(=O)C3CC3)CC2)c1)c1ccc(F)cc1 (stereo not drawn) | -35.8 |
| Cc1ccnc(N2CCN(C(=O)CSc3nc4ccccc4nc3N3CCC(C)CC3)CC2)c1 | 17.9 |
| O=C(Cn1cc(C(=O)C2CC2)c2ccccc21)NCc1ccccc1 | 3.43 |
| COc1cc(/C=C/c2cc[n+](C)cc2)ccc1OCC(=O)Nc1ccc(Cl)c(Cl)c1.[I-] | -5.84 |
| CCOC(=O)C1=NN(C(=O)Cc2ccccc2)C(O)(C(C)(C)C)C1 (stereo not drawn) | 9.74 |
| Cc1cc(Cl)c2oc(C(=O)N3CCC(O)(c4ccccc4)CC3)c(C)c2c1 | 8.87 |
| COc1ccc2nc3c(cc2c1)c(NC(=O)c1cccs1)nn3CC(C)C | 4.15 |
| O=C1c2ccccc2C(=O)N1CC1c2ccccc2CCN1C(=O)N1CCOCC1 (stereo not drawn) | 5.98 |
| CC(C)OC(=O)Cn1nc(C(c2ccccc2)c2ccccc2)oc1=O | -12 |
| Cc1ccc(C(=O)CC2C(=O)N(c3ccccc3)C(=S)N2c2ccccc2)cc1 (stereo not drawn) | -7.04 |
| O=C1c2ccccc2C(=O)N1CCSc1nc2ccccc2c(=O)n1CCCN1CCOCC1 | -15.1 |
| Cc1ccc(S(=O)(=O)/N=c2\sccn2C)cc1 | 16.1 |
